According to PubChem BioAssay AID360 (National Center for Advancing Translational Sciences (NCATS), 2006):
The whole screen tested about 48,000 compounds, of which about 550 (1.1%) were called active. Another 4% or so got no clear call; they are omitted. Cut-off read from the data, not from the text of the source: active = potency below about 15 µM; inconclusive = mostly about 16 µM to 33 µM; inactive = weaker than that. This is one part of the list.

Target: Lysosomal acid glucosylceramidase (Homo sapiens) (UniProt P04062)
Chain of UniProt P04062 (P04062 whole entry, looked up): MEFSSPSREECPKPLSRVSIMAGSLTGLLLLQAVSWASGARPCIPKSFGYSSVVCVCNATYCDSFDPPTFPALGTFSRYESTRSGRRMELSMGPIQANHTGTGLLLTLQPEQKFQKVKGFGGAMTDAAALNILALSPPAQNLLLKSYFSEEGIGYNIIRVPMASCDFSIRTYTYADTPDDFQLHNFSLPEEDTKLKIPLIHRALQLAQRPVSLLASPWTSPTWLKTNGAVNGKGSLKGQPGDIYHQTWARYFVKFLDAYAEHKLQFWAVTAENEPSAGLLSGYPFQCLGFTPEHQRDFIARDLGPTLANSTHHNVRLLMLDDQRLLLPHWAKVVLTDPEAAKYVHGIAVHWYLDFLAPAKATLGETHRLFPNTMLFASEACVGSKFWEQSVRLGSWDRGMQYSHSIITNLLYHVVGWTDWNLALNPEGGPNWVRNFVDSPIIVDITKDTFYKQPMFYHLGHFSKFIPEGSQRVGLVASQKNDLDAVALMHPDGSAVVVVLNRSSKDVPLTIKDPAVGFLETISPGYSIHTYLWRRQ
Test: Glucocerebrosidase;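 note: the screen sought inhibitors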
Conditions: purified enzyme, resorufin glucoside fluorescence (screen aimed at inhibitors), 20 min
Summary of the method: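 Normal human glucocerebrosidase (0.2 nM final) was assayed with resorufin β-D-glucopyranoside (30 uM final) in 50mM citric acid/KH2PO4, 10mM sodium taurocholate, 0.01% tween-20, pH 5.9. Compounds were titrated; fluorescence (Ex 548, Em 600) read after 20 min at RT.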
Potency is the fitted concentration of half-maximal effect.

Potency, inactive:
COC(=O)c1ccc(Cn2cc(Cl)cn2)cc1 > 76.9 µM
c1ccc(OCc2nc3ccccc3[nH]2)cc1 > 76.9 µM
Cc1ccc(S(=O)(=O)N(C)Cc2cc3ccccc3[nH]c2=O)cc1 > 76.9 µM
CCc1ccccc1NC(=O)c1cnccn1 > 76.9 µM
COc1ccc(OC)c(NC(=O)COC(=O)c2ccc(S(=O)(=O)N3CCOCC3)cc2)c1 > 76.9 µM
COC(=O)c1ccc(COc2nc(C)cc(C)c2C#N)o1 > 76.9 µM
CCc1nc(SCC(=O)NCCc2ccccc2)n[nH]1 > 76.9 µM
O=C(Nc1ccccc1)c1ccccc1OCC(O)CN1C(=O)c2ccccc2S1(=O)=O (stereo unspecified) > 76.9 µM
CCn1c(=N)c(C(=O)NCc2cccnc2)cc2c(=O)n3cccc(C)c3nc21 > 76.9 µM
O=C(NCc1cccs1)Nc1ccc2c(c1)OCO2 > 76.9 µM
COc1ccccc1-c1nnc(Nc2nc3c(OC)cccc3s2)o1 > 76.9 µM
CCOc1ccccc1Nc1nc(N)nc(CSc2nncn2C)n1 > 76.9 µM
Cc1ccc(N2CC(C(=O)Nc3ccc4c(c3)OCO4)CC2=O)cc1 (stereo unspecified) > 76.9 µM
CCOC(=O)C1=C(C)NC(=O)NC1C (stereo unspecified) > 76.9 µM
Cn1c(=O)n(CC(=O)O)c(=O)c2c1nc1n2CCS1 > 76.9 µM
COc1ccc(C2c3c(oc4ccccc4c3=O)C(=O)N2CCCN2CCOCC2)cc1 (stereo unspecified) > 76.9 µM
Cc1nc(NC2=NCN(Cc3ccc4c(c3)OCO4)CN2)nc2ccccc12 > 76.9 µM
CCOC(=O)c1cnc2sc3c(n2c1=O)CCCC3 > 76.9 µM
CCOC(=O)c1cc(-c2ccc(F)cc2)n(CC(=O)N2CCCC2)c1C > 76.9 µM
Cc1nn(-c2nc3ccccc3n2Cc2ccccc2)c2c1C(=O)CC(C)(C)C2 > 76.9 µM
CSc1nsc(NC(=O)Cc2ccccc2)n1 > 76.9 µM
CCNc1nc(SCCOc2ccccc2)nc(N(C)C)n1 > 76.9 µM
COc1ccc(C)cc1Cn1c(S(C)(=O)=O)nc2ccccc21 > 76.9 µM
Cc1ccc(NC(=O)Cn2c(=O)n(CCCC(=O)NCc3ccco3)c(=O)c3ccccc32)cc1 > 76.9 µM
COc1cccc(CNCCSc2nnnn2C)c1 > 76.9 µM
O=c1c2cnn(-c3ccccc3)c2ncn1/N=C/c1ccncc1 > 76.9 µM
